Assay in all cases: mutation enrichment score (mutant vs wild-type peptide binding to bait); baits are purified protein domains named by gene / domain / UniProt id / residues; peptides come from disordered regions of human proteins; higher = mutation enhances binding relative to wild type
Experiment [1] addresses PDCD6IP_Alix-V-domain__Q8WUM4_360_702. Particulars: number of wild-type / mutant comparisons summed (bounds the score): 5; paper call: no_effect; wild-type window: ….
Experiment [2] concerns the target T1, PEX14_Pex14__O75381_16_84.
T1 chain: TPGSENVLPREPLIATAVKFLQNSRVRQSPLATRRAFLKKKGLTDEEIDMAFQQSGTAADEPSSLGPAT
The settings on record: number of wild-type / mutant comparisons summed (bounds the score): 6, wild-type window: ….

Experiment [3] has as its target T2, RDX_FERM_1_P35241_5_295.
T2 chain: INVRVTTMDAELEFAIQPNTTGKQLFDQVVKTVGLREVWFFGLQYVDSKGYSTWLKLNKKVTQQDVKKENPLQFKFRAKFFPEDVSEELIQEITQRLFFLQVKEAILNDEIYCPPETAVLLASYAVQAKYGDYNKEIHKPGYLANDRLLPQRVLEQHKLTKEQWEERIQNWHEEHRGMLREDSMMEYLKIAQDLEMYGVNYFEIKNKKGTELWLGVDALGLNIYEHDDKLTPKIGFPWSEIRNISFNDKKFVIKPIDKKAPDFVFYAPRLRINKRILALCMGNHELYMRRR
The settings on record: number of wild-type / mutant comparisons summed (bounds the score): 6; paper call: no_effect; wild-type window: ….

Experiment [4] addresses PDCD6IP_Bro__Q8WUM4_1_359. The settings on record: number of wild-type / mutant comparisons summed (bounds the score): 5; paper call: no_effect; wild-type window: ….

Some of the results follow. The data scatter; read single values as rough.

B1: R239L R239L (peptide)
chain: QGTGVTTYAVHPGVVRSELVLHSSLLCLLWRLFSPFVKTAR
For the molecule B1, the mutation enrichment score in experiment [1] is -5.

B2: R239Q R239Q (peptide)
chain: QGTGVTTYAVHPGVVRSELVQHSSLLCLLWRLFSPFVKTAR
In the case of B2, the mutation enrichment score in experiment [1] is -5.

B3: P392R P392R (peptide)
chain: AGPPPPPPPPHPHARIKLENRLDYGSAWAAAAAQCRYGDLA
As to B3, the mutation enrichment score in experiment [2] (paper call: no_effect) was -5.8.

B4: S5L S5L (peptide)
chain: MAAASYDQLLKQVEALKMENLNLRQ
In the case of B4, the mutation enrichment score in experiment [1] is 3.

B5: D1361N D1361N (peptide)
chain: RISIIPQDPILFPGSLRMNLNLLQEHSDEAIWAALETVQLK
Regarding B5, in experiment [2] (paper call: no_effect), the mutation enrichment score is -5.

B6: D1361Y D1361Y (peptide)
chain: RISIIPQDPILFPGSLRMNLYLLQEHSDEAIWAALETVQLK
B6: the mutation enrichment score in experiment [2] (paper call: no_effect) is -4; in experiment [3], 3.

B7: D121Y D121Y (peptide)
chain: TSLQNDLQEVPKLYPEFPPKYMCEKLPEPQSFSSAPQHAEV
As to B7, the mutation enrichment score in experiment [1] came to 4.7.

B8: V72E V72E (peptide)
chain: EFGNVEAQSRFIFFVDIWTTELDLKWRYKMTIFITAFLGSW
On to B8, for which, in experiment [2] (paper call: no_effect), the mutation enrichment score is -3.

B9: H95L H95L (peptide)
chain: LSRTVNGYDTSGQRYSPYPQLTAGYQGLLAIVKAAVSSSST
With B9, in experiment [1], the mutation enrichment score was 4.9.

B10: N32I N32I (peptide)
chain: SRVVLGEFGVRNVHTTDFPGIYSGYDDAWDQDRFEKNFRVD
With B10, the mutation enrichment score in experiment [2] (paper call: no_effect) is -4.7.

B11: P30S P30S (peptide)
chain: MRSRVVLGEFGVRNVHTTDFSGNYSGYDDAWDQDRFEKNFR
Turning to B11, in experiment [2] (paper call: no_effect), the mutation enrichment score was 3.5.

B12: T26I T26I (peptide)
chain: AVEEMRSRVVLGEFGVRNVHITDFPGNYSGYDDAWDQDRFE
Take B12: the mutation enrichment score in experiment [2] (paper call: no_effect) was -0.96.

B13: R1240W R1240W (peptide)
chain: SSDINNMPLQELSNALMAAEWFKEHRDTALYKSLSVPAAST
With B13, the mutation enrichment score in experiment [2] (paper call: no_effect) amounted to 5.

B14: P392L P392L (peptide)
chain: EGPTGLKEAALYPHLPPEADLRLIESLSQMLSMGFSDEGGW
On to B14, for which the mutation enrichment score in experiment [1] was 5.

B15: L7P L7P (peptide)
chain: MPAWGAPFLLWATAEATKDCPSPCTCR
On to B15, for which the mutation enrichment score in experiment [2] (paper call: no_effect) is -4.

B16: R136W R136W (peptide)
chain: CQQFSLPENIQLSLFSASFLWNINEYLAVVDAPPLDLRFNP
B16: the mutation enrichment score in experiment [2] (paper call: enhanced) amounted to 6.

B17: G211D G211D (peptide)
chain: PFLVQRTVARQVALVECVGKDRYGEVWRGLWHGESVAVKIF
As for B17, the mutation enrichment score in experiment [2] (paper call: no_effect) stood at 5.

B18: P466L P466L (peptide)
chain: LDPTVLPLYSLGPSGQLAETLAEVFQALEQLGHQAFRPGQE
Turning to B18, in experiment [4], the mutation enrichment score came to 2.

B19: R729W R729W (peptide)
chain: PKLWMMKGQIEEQKEMMEKAWEAYNQGLKKCPHSTPLWLLL
Regarding B19, in experiment [2] (paper call: no_effect), the mutation enrichment score was determined as 3.

B20: T408I T408I (peptide)
chain: QKKLMIKQGLLDKHGKPTDSIPATWKQEYVDYSESAKKEVV
On to B20, for which the mutation enrichment score in experiment [2] (paper call: no_effect) is -2.3.

B21: G1275D G1275D (peptide)
chain: ADKVFTYIFILEMLLKWVAYDYQTYFTNAWCWLDFLIVDVS
Consider B21, for which, in experiment [2] (paper call: no_effect), the mutation enrichment score was 2.

B22: T27A T27A (peptide)
chain: VEEMRSRVVLGEFGVRNVHTADFPGNYSGYDDAWDQDRFEK
Turning to B22, the mutation enrichment score in experiment [2] (paper call: no_effect) was -1.4.

B23: V944E V944E (peptide)
chain: ASDCQLPRWHMNDFFHSFLIEFRVLCGEWIETMWDCMEVAG
Take B23: in experiment [2] (paper call: no_effect), the mutation enrichment score is 2.

Values taken from the supplement of paper PMC11369174, “Proteome-scale characterisation of motif-based interactome rewiring by disease mutations” (Molecular Systems Biology, 2024).
